# Experimental data as given in the supplement of paper PMC12217912.
# The list shows a part of the results. Sequences were assembled here from the parent chain. Inactive controls read about 0.05.
# B1: TEV protease; numbered along this chain (parent)
# chain: MGESLFKGPRDYNPISSSICHLTNESDGHTTSLYGIGFGPFIITNKHLFRRNNGTLVVQSLHGVFKVKDTTTLQQHLVDGRDMIIIRMPKDFPPFPQKLKFREPQREERICLVTTNFQTKSMSSMVSDTSCTFPSGDGIFWKHWIQTKDGQCGSPLVSTRDGFIVGIHSASNFTNTNNYFTSVPKNFMELLTNQEAQQWVSGWRLNADSVLWGGHKVFMVKPEEPFQPVKEATQL
# Variants of: B1
# Assay: raw area under fraction-flipped curve 0-4 h after induction (AUC4h, not background-subtracted), DNA-recorder readout of cleavage of the substrate (dimensionless); higher = more cleavage of the substrate by the protease variant
# Conditions: temperature: 34 °C; time window: 0-4 h after rhamnose induction
# 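Also: Bxb1 expression induced with 0.2% (w/v) L-rhamnose at OD600 near 0.5, cultures sampled hourly, flipped fraction per protease–substrate barcode pair counted by paired-end Illumina sequencing.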
Variant,area with substrate EFLYFQS,area with substrate EGLYFQS,area with substrate EILYFQS,area with substrate EPLYFQS,area with substrate EQLYFQS,area with substrate ERLYFQS,area with substrate ESLYFQS,area with substrate ETLYFQS,area with substrate EVLYFQS,area with substrate EWLYFQS
R160E,0.14,0.0637,0.091,0.148,0.127,0.0854,0.0949,0.0606,0.116,0.102
F218R,,,,,,,0.0967,,,
F95M,,,,,,,0.0669,,,0.0889
I145E,,,0.0736,,,0.0019,0.0633,,,0.0564
I85L,0.121,,0.101,,,,0.125,0.122,0.0975,
I164F,,,0.0534,0.0608,,,0.0388,0.0653,,
G138R,,0.0843,0.0978,0.118,0.0948,,0.0873,,0.0914,
T114H,,,0.128,,,,0.0977,,,
S121T,,,,,,,0.106,,0.109,0.0973
K120N,,0.0821,0.0888,,,0.111,,,,
G35K,,,,,,,,,,0.0588
P96Q,,,0.101,,0.129,0.115,0.0905,,,
L205V,,0.0824,,,,,,,,0.0489
G202K,,,0.0975,0.0872,,0.0794,0.0872,0.084,0.0653,
L77P,,,0.0925,0.118,0.122,0.0669,0.098,,,
N172C,0.097,0.0593,,,0.0569,,0.0696,0.0298,0.0592,0.0709
D208H,,,0.0644,,0.132,0.0822,0.104,,0.103,
D208W,0.0664,0.0584,0.0701,0.0755,,0.0587,0.0751,,0.0943,

Variant,area with substrate EFLYFQS,area with substrate EGLYFQS,area with substrate EILYFQS,area with substrate EPLYFQS,area with substrate EQLYFQS,area with substrate ERLYFQS,area with substrate ESLYFQS,area with substrate ETLYFQS,area with substrate EVLYFQS,area with substrate EWLYFQS
M83F,,,0.0717,,0.102,0.0694,0.0732,0.1,0.0713,0.0982
T174A,,,,,,,0.104,,,
V57R,0.0867,,0.101,,,0.0812,,,,
G136A,,,,0.106,0.131,,0.076,,,
S18M,,0.0914,,0.118,,0.113,0.0968,0.105,0.0799,0.123
T119M,,,0.0792,0.149,0.147,,0.0677,,0.103,
T119F,,,,0.0319,,,,,,0.115
D161Q,,0.0546,0.0609,,,,0.0661,,0.047,0.0607
N177Y,0.092,,,0.0682,0.074,0.0441,,,,0.0753
H215A,,,0.0478,0.0765,0.0708,,0.0676,,0.0575,
N116C,,0.0876,0.0759,,,0.0753,0.0978,,0.135,0.0996
P104K,,0.0471,,0.123,,,,,0.0419,
Y34L,0.0973,,,0.121,,0.0894,0.0942,,0.084,
G214C,,,0,,,,,,0.0883,
N193S,,0.11,0.0901,,,,0.107,,,
G153R,,,,,,,,0.0421,0.0542,
T115G,,,0.064,0.085,0.119,,,,0.0722,
K216M,,,0.1,,0.0937,,0.117,,0.099,

# Same assay, conditions: temperature: 34 °C; time window: 0-4 h after rhamnose induction
Variant,area with substrate EELYFQS,area with substrate EMLYFQS,area with substrate EKLYFQS,area with substrate EHLYFQS,area with substrate EYLYFQS,area with substrate EDLYFQS,area with substrate ELLYFQS
F218R,0.132,,,,,,
F95M,0.107,0.139,,,,,
I145E,,,0.0082,,,,
I85L,0.093,0.115,0.102,,,,
G138R,0.0673,,,0.105,0.0891,,
T114H,,,,,0.101,,
S121T,,,,,0.119,,
K120N,0.169,0.0753,,,,,
G35K,,,,,0.0494,,
P96Q,0.109,0.0601,0.117,0.0936,0.0967,,
L205V,,,,,,0.103,
G202K,,,,0.0797,,0.0938,
L77P,0.0954,0.119,,0.119,0.0942,,0.0959
N172C,0.0702,0.0708,,0.0652,,,
D208H,,,,,,0.0846,
D208W,0.0674,0.101,0.0873,0.112,,,0.0655

Variant,area with substrate EELYFQS,area with substrate EMLYFQS,area with substrate EKLYFQS,area with substrate EHLYFQS,area with substrate EYLYFQS,area with substrate EDLYFQS,area with substrate ELLYFQS
M83F,,,,0.105,,,0.0667
V57R,,,0.0994,,,,
G136A,0.0951,0.0891,0.13,0.0703,,,0.0854
S18M,0.0977,,0.11,,0.0962,,0.132
T119M,,0.112,0.098,,0.0901,,
T119F,0.115,0.113,0.0975,0.0981,,,
D128G,0.174,,,,,,
D161Q,,0.0768,,,,,
N177Y,,,,,0.0545,,
H215A,0.0701,,0.0661,,0.057,,
N116C,,,0.0661,,,,
P104K,,,,,0.0568,,
Y34L,,,,,0.103,,
N193S,0.106,,,,,,
G153R,,,0.0554,,,,
K216M,,0.112,,0.112,,,
